# The whole screen tested about 340,000 compounds, of which about 6,900 (2%) were called active. Cut-off read from the data, not from the text of the source: active = inhibition above about 30%; inactive = below that, where a call was filed. Only a part is listed here, and it is no random draw. The source gives no active or inactive call for entries shown without one.
# Molecular target: D(2) dopamine receptor (Homo sapiens) (UniProt P14416)
# Assay: HTS Assay for Allosteric Antagonists of the Human D2 Dopamine Receptor: Primary Screen for Antagonists; note: 0% is about no effect
# Settings: HEK293 TREx D2 cells, calcium flux, dopamine EC80; at 10 µM; stronger effect = higher value
# Outline: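 Calcium mobilization kinetics were recorded at 1 s intervals in tetracycline-induced HEK293 T-REx D2 cells, first for 180 s after compound addition and then 180 s after EC80 dopamine.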
# Sequence of UniProt P14416 (P14416 whole entry, looked up): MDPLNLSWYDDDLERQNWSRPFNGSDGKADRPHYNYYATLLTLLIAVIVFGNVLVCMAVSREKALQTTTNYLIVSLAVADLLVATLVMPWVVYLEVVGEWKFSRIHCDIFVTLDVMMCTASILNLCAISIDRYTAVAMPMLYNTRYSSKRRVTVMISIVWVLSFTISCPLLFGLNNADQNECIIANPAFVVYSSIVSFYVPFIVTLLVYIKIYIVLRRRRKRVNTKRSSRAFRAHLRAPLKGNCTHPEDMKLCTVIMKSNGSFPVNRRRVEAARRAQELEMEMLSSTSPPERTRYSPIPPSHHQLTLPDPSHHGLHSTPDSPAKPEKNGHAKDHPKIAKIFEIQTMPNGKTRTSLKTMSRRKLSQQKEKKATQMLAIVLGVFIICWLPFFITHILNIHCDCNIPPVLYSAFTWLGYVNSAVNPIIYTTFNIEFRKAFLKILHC
row,Compound,inhibition
1,CC(=O)Nc1c(C)nn(-c2ccccc2)c1N1CCC(C(=O)NCc2cccc(Cl)c2)CC1,0.848%
2,COc1cc(Cl)c(NC(=O)CCc2nc3cccnc3n2-c2ccccc2)c(OC)c1,-13.8%
3,O=C(CSc1nc2cc3ccccc3cc2[nH]1)Nc1ccc(F)cc1,-2.23%
4,CC1=C(C(=O)Nc2ccc(Cl)cc2)C(c2cccs2)n2nc(SCc3cccc(C)c3)nc2N1 (stereo not given),-7.78%
5,COCCNC(=S)N(CCc1c(C)[nH]c2ccc(F)cc12)Cc1cccs1,active: 30%
6,Cc1ccc(NC(=O)c2cnc(SCC(=O)N3CCCc4ccccc43)n(C)c2=O)cc1,0.714%
7,CC(C)(C)OC(=O)N1CCC(c2c(C(=O)N3CCN(c4ccccc4F)CC3)cnn2-c2ccccc2Cl)CC1,1.42%
8,COc1ccc(OC)c(NC(=O)c2cnc(Nc3ccc(C)c(Cl)c3)c3ccccc23)c1,-0.939%
9,CC1CCC(N2CC(=O)N(CCC3=CCCCC3)C(c3ccc(F)cc3)C2=O)CC1 (stereo not given),24.6%
10,O=S1(=O)NC(=NCc2ccccc2)c2ccccc21,active: 30.5%
11,CCN(CC)C(=O)Cn1c(=O)n(-c2ccc(C)c(C)c2)c(=O)c2c(C)c(C(=O)N(CC)CC)sc21,5.51%
12,CCN1CCN(C(=O)c2cnn(-c3ccc(F)cc3F)c2C2CCN(C(=O)OC(C)(C)C)CC2)CC1,-16.5%
13,CC1CCc2onc(C(=O)N3CCN(c4ccc(F)cc4)CC3)c2C1 (stereo not given),6.49%
14,CCCCCN1C(C(=O)c2ccccc2)=C(NC(=O)c2ccc(C)cc2)c2ccccc2S1(=O)=O,-7.78%
15,Cc1cc(=O)n(Cc2ccc(F)cc2Cl)c2c1c(C)nn2C,-3.69%
16,CC(C)c1ccc(-c2noc(SCC(=O)N3CCCCC3C)n2)cc1 (stereo not given),-1.32%
17,Cc1cc(C)cc(OC(=O)c2cc(-c3ccc(Cl)cc3)on2)c1,-3.85%
18,Cc1cccc(-c2nc(CCNC(=O)c3ccc(Br)o3)cs2)c1,6.67%
19,Cn1c(SCC(=O)Nc2ccc(Cl)cc2F)nnc1-c1ccco1,active: 40.4%
20,O=S(=O)(Nc1ccc(-c2ccc(N3CCCC3)nn2)cc1)c1ccc(C(F)(F)F)cc1,10.9%
21,Cc1ccc(-n2ncc3c(N(C)C)ncnc32)cc1Cl,18.4%
22,CCC(Sc1nc(-c2ccccc2)[nH]c1S(=O)(=O)c1ccc(C)cc1)C(=O)O (stereo not given),10.6%
23,COc1ccc(C)cc1NC(=O)Nc1cc(C(=O)NCc2ccc(C)cc2)ccc1N1CCCC1,9.58%
24,Cc1sc(-c2cc3ccccc3oc2=O)nc1-c1ccc(Cl)c(Cl)c1,-19%

row,Compound,inhibition
1,Cc1nnc(N2CCCC(C(=O)NCCN(C)C)C2)c2nn(-c3ccccc3)c(C)c12 (stereo not given),-1.48%
2,CCOc1ccc(CNCc2c(C(=O)O)c(C)n(Cc3ccc(C)cc3)c2C)cc1,-0.934%
3,CCOc1ccccc1OCCCCn1c(-c2ccc(Cl)cc2)nc2ccccc2c1=O,3.77%
4,Cc1cc(C)cc(NC(=O)c2ccc3oc(=O)c(S(=O)(=O)c4ccc(F)cc4)cc3c2)c1,-4.55%
5,CCN1CCN(CCCNC(=O)CS(=O)(=O)Cc2nc(-c3ccccc3C)oc2C)CC1,7.49%
6,COc1ccc(N2CCN(C(=O)C3CCN(S(=O)(=O)c4cccc5nonc45)CC3)CC2)cc1,-19.3%
7,Cc1ccc(-c2nnc(Nc3ccc(C(N)=O)cc3)c3ccccc23)cc1S(N)(=O)=O,4.46%
8,O=C(Nc1ccc(-c2nc3ccccc3o2)c(O)c1)c1ccccc1,-24.2%
9,COc1ccc(NC(=O)Cn2c(=O)c3cccn3c3ccccc32)cc1Cl,-20.7%
10,CCOC(=O)c1noc2ncnc(Nc3cc(Cl)c(OC)cc3OC)c12,3.52%
11,Cc1ccc(C2=CC(c3ccc(Cl)cc3)n3nc(-c4ccc(C)cc4)nc3N2)cc1 (stereo not given),-5.8%
12,CC(C)c1ccc(C2c3c(oc4ccc(Cl)cc4c3=O)C(=O)N2CCCN2CCOCC2)cc1 (stereo not given),-18.4%
13,COc1cc(NC(=O)CN2C(=O)C(c3ccc(Cl)cc3)=NC23CCCCC3)cc(OC)c1,-8.85%
14,Cc1ccc(O)c(NC(=O)c2cc(-c3ccc(F)cc3)on2)c1,13.5%
15,Cc1ccccc1OCC(O)CN1CCN(c2ccccn2)CC1 (stereo not given),active: 87.2%
16,Cc1cccc(C(=O)N2CCC(N3CCN(Cc4ccc(F)cc4)C(=O)C3=O)CC2)c1,2.64%
17,Cc1cc2c(cc3c(SCc4cccc(F)c4)nnc(C)n32)o1,4.23%
18,COC(=O)c1ccc(Cl)cc1NC(=O)NC(C)c1c(-n2cccc2)sc(C)c1C (stereo not given),-8.06%
19,COc1ccc(NC(=O)CCc2nc3cccnc3n2-c2ccccc2)cc1Cl,-16.1%
20,CCc1ccccc1NC(=O)CSc1nc2ncccc2o1,-17.2%
21,O=C(CCc1ccccc1)N1CCc2c([nH]c3ccccc23)C1c1ccc(Cl)cc1 (stereo not given),8.7%
22,Cc1oc2ccc(O)c(CN3CCCCC3C)c2c1C(=O)Nc1ccccc1 (stereo not given),20.9%
23,O=C(CC(c1cccs1)N1Cc2ccccc2C1=O)Nc1ccc(F)cc1F (stereo not given),4.55%
24,COc1ccc(C(CNC(=O)Cc2ccc(Cl)cc2)N2CCOCC2)cc1 (stereo not given),-1.72%

row,Compound,inhibition
1,Cc1oc2ncn(C)c(=O)c2c1C(=O)N(Cc1ccccc1)C(C)C,-5.1%
2,Cc1ccc(Cl)cc1N1CCN(C(=O)c2ccc(CS(=O)(=O)c3ccc(Br)cc3)o2)CC1,5.7%
3,CCOC(=O)c1c(C)[nH]c(CCC(=O)NCc2cccc(OC)c2)c1C,-1.6%
4,Cc1ccc(Cl)cc1N1CCN(C(=O)CCn2c(=O)c3cccn3c3cccnc32)CC1,-0.712%
5,COCCn1c(SCC(=O)Nc2cccc(C)c2C)nc2c(oc3ccccc32)c1=O,-6.42%
6,Cc1cc(-c2ccc(S(=O)(=O)Nc3cc(Cl)ccc3C)s2)on1,7.32%
7,COc1ccc(CCNC(=O)c2cc3c(-c4ccc(OC)c(OC)c4)nn(C)c3s2)cc1OC,-2.01%
8,CCCCOc1ccc(CN(C)c2ncnc(N)n2)cc1,active: 30.7%
9,CCOC(=O)C1CCCN(c2c(C(=O)c3ccc(C)cc3)cnc3ccc(OCC)cc23)C1 (stereo not given),15%
10,COc1ccc(CC(=O)Nc2ccc3nc(Nc4cccc(Cl)c4)cc(C)c3c2)cc1,-9.23%
11,COc1ccc(CN2CCN(c3ncccn3)CC2)c(OC)c1,active: 69.1%
12,Cc1ccccc1NC(=O)NCCCN1CCN(c2ccccc2)CC1,active: 79.2%
13,Nc1c(C(=O)NCCc2ccccc2)nnn1CC(=O)Nc1ccc(Cl)cc1,6.01%
14,COc1cc(NS(=O)(=O)c2ccc3[nH]c4c(c3c2)CCCC4)cc(OC)c1OC,-11.4%
15,C=Cc1ccc(Cn2c(C(=O)O)c(CNCCc3ccccc3)c3ccc(C)cc32)cc1,-0.855%
16,CCCn1c(CCC(=O)Nc2cccc(C)c2C)nc2cccnc21,4.83%
17,Cc1ccccc1OCCCCn1c(C2CC(=O)N(c3ccccc3Cl)C2)nc2ccccc21 (stereo not given),-18.9%
18,COc1ccc(CNC(=O)CCC2N=C3c4ccccc4N=C(SCc4ccc(F)cc4)N3C2=O)cc1 (stereo not given),6.83%
19,CCN1CCOC(=O)C1CC(=O)Nc1ccc(C)c(Cl)c1 (stereo not given),6.05%
20,COc1ccc(OC)c(NC(=O)c2c(NCc3ccc(OC)c(OC)c3)sc3c2CCC(C)C3)c1 (stereo not given),13.4%
21,Nc1c(C(=O)Nc2cccc(F)c2)sc2nc(-c3cccs3)ccc12,-3.29%
22,Cc1ccc(S(=O)(=O)N(C)C)cc1NC(=O)Nc1ccccc1F,active: 64.5%
23,CN1CCN(C2(CNC(=O)c3ccc([N+](=O)[O-])cc3)CCCCC2)CC1,5.84%
24,Cc1cc(C)nc(NS(=O)(=O)c2ccc(NC(=O)c3cc(=O)c4ccc(C)c(C)c4o3)cc2)n1,5.65%

row,Compound,inhibition
1,Cc1ccccc1-c1nc2scc(CCNC(=O)C(=O)Nc3ccc(F)cc3F)n2n1,9.97%
2,COCCCn1c(=O)c2sccc2n2c(CCCC(=O)Nc3ccc(F)c(F)c3)nnc12,3.16%
3,Cc1ccc2nc(NC(=O)c3ccc(S(=O)(=O)N4CCCc5ccccc54)cc3)sc2c1,-2.86%
4,COc1ccc(OC)c(-c2nn(-c3ccccc3)cc2C(=O)NCC(c2ccco2)N2CCCC2)c1 (stereo not given),active: 36.5%
5,CC(CCc1ccccc1)NC(=O)C(=O)Nc1ccccc1 (stereo not given),active: 72.3%
6,COc1ccc(C(=O)N2c3nc(-c4ccco4)nn3C3(CCCCC3)[C@@H]3CCCC[C@@H]32)cc1OC,-14.4%
7,O=C(NC1CCCCC1)c1ccc(Cn2c(SCc3ccccc3)nc3cccnc32)cc1,-0.137%
8,Cc1c(NC(=O)c2cccc(NC(=O)Cc3ccc(Cl)cc3)c2)c(=O)n(-c2ccccc2)n1C,active: 32.7%
9,CCC(Oc1ccc(F)cc1)C(=O)Nc1nc2c(s1)CCCC2 (stereo not given),4.47%
10,CCc1ccc(-c2cc(C)no2)cc1S(=O)(=O)NCc1ccco1,3.29%
11,COc1ccc(C2c3c(n(C)c4ccccc34)C(=O)N2CC(=O)Nc2ccc(C)cc2Cl)cc1 (stereo not given),2.24%
12,CCc1ccc(CNC(=O)Cn2nc(-c3ccc(Cl)cc3)ccc2=O)cc1,7.28%
13,CCN(CC)S(=O)(=O)c1ccc(-c2csc(=Nc3cccc(C(F)(F)F)c3)n2Cc2ccc3c(c2)OCO3)cc1,-8.75%
14,COC(=O)Cc1cc(=O)n(-c2nc3ccccc3s2)[nH]1,active: 36.2%
15,Cc1ccc(S(=O)(=O)N2CCCc3cc(NS(=O)(=O)c4ccc(F)cc4)ccc32)cc1,18.4%
16,COc1cccc(NC(=O)Cn2c(=O)n(Cc3ccc(C(=O)NCc4ccc5c(c4)OCO5)cc3)c(=O)c3ccccc32)c1,-5.16%
17,CN(C)c1ccc(CNC(=O)C2CCN(S(=O)(=O)c3ccc4c(c3)oc(=O)n4C)CC2)cc1,-9.48%
18,CCCCCCc1cc2cc(-c3nnc(-c4cccc(Cl)c4)o3)c(=O)oc2cc1O,-3.51%
19,Cc1ccc(NC(=O)c2oc3ccc(S(=O)(=O)N4CCCCC4)cc3c2C)c(C)c1,-19.4%
20,Cc1cccc(N2CCN(C(=O)C(C)n3nc(C)n4c(cc5occc54)c3=O)CC2)c1C (stereo not given),-11.6%
21,Cc1cc(C)c(NC(=O)c2c(C)oc3c2C2=NCCN2C=N3)c(C)c1,-8.84%
22,Cc1cc(C)c(NC(=O)CN2C(=O)C3(SCC(=O)N3c3ccc(F)cc3)c3ccccc32)c(C)c1 (stereo not given),9.2%
23,Cc1ccc(S(=O)(=O)NCCc2nnc3ccc(SCc4ccccc4F)nn23)cc1,-23.1%
